Some of the results follow. These are noisy estimates, calculated here from bound and input reads.

The assay addresses T1, Pho4 (S. cerevisiae) (UniProt P07270).
T1 sequence: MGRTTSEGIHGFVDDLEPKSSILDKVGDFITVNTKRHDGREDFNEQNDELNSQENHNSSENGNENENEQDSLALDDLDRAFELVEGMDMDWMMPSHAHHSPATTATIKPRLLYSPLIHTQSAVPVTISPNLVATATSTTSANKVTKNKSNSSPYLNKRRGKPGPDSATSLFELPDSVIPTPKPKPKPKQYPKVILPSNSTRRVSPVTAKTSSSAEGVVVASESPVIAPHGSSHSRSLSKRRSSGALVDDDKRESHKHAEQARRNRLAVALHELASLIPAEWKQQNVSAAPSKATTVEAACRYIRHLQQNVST
Description: relative binding free energy (BET-seq); higher = weaker binding. The following applies: reference: library average.
Regarding ATGTACACGTGATAAT, the “relative binding free energy” value came to 0.19 kcal/mol.
The value for CGGGGCACGTGTGCGT was -0.09 kcal/mol.
For GATTTCACGTGGTAGG the value was 0.24 kcal/mol; for CATGGCACGTGTCTTT, 0.08 kcal/mol.
With AGACGCACGTGAGTTT, the “relative binding free energy” value amounted to 0.18 kcal/mol.
For TATGGCACGTGTTGAT the value was 0.09 kcal/mol; for GTTCACACGTGGTCTT, 0.17 kcal/mol; for CGTGGCACGTGGTTGC, -0.19 kcal/mol.
For GCGTGCACGTGTGTTT the value was -0.01 kcal/mol; for AAAGCCACGTGTGGGT, -0.12 kcal/mol; for TAAGGCACGTGGAAAT, 0.12 kcal/mol.
The value for GGGATCACGTGACGAG was 0.32 kcal/mol.
Regarding ATGTTCACGTGGATGT, the “relative binding free energy” value stood at 0.13 kcal/mol.
The value for GTAAGCACGTGGGGAA was -0.21 kcal/mol; that for GATACCACGTGTGGTG was 0 kcal/mol.
For TGTGACACGTGTTGTG the value was 0.02 kcal/mol; for AATATCACGTGAGAGG, 0.33 kcal/mol; for AGGTGCACGTGTAATG, 0.12 kcal/mol.
For TATGGCACGTGTTGAC the value was -0.11 kcal/mol.
Consider TCTTTCACGTGGCAGG, for which the “relative binding free energy” value amounted to 0.21 kcal/mol.
The value for TTAGACACGTGGGTCG was -0.07 kcal/mol.
For GGGTTCACGTGTTGAT the value was 0.4 kcal/mol.
As for GTATACACGTGTTCGG, the “relative binding free energy” value stood at 0.05 kcal/mol.
The value for AATAACACGTGGGATT was -0.14 kcal/mol; that for CTTTTCACGTGAAAGG was 0.44 kcal/mol; that for GGGGGCACGTGAGACT was 0.08 kcal/mol.
For the sequence ATAAGCACGTGGAAGG, the “relative binding free energy” value is -0.09 kcal/mol.
For CTTATCACGTGATTGG the value was 0.31 kcal/mol; for GTATCCACGTGATTGT, 0.23 kcal/mol; for GGCACCACGTGAGGGT, 0.19 kcal/mol.
For TTGTGCACGTGCTAGA the value was -0.06 kcal/mol; for TGGGGCACGTGGCGAT, -0.19 kcal/mol.
For CATTGCACGTGTTGGC, the “relative binding free energy” value is -0.01 kcal/mol.
For the sequence TTTACCACGTGGGGCT, the “relative binding free energy” value was -0.12 kcal/mol.
The value for GATCGCACGTGGGCGG was -0.09 kcal/mol; that for AAGTGCACGTGTAATG was -0.05 kcal/mol; that for GGACACACGTGTGGGA was 0.08 kcal/mol.
For ATGGACACGTGGTGGT the value was -0.06 kcal/mol.
The value for AGGGGCACGTGGTGAC was -0.26 kcal/mol.
As to AGGCGCACGTGAGTGG, the “relative binding free energy” value is 0.04 kcal/mol.
The value for AGAGACACGTGTTTTG was -0.09 kcal/mol.
The value for CATGGCACGTGATGGC was 0.2 kcal/mol; that for GTCATCACGTGTGGTT was 0.4 kcal/mol.
The value for GTTTGCACGTGAGCAA was 0.19 kcal/mol; that for TTATACACGTGATTAG was 0.3 kcal/mol; that for AGGGACACGTGTTAGA was -0.04 kcal/mol.
TCTGTCACGTGGCGGG: the “relative binding free energy” value came to 0.09 kcal/mol.
In the case of TTTGGCACGTGAATGC, the “relative binding free energy” value was found to be 0.14 kcal/mol.
For CGTTGCACGTGGGCCG the value was -0.22 kcal/mol; for GTGAGCACGTGGAGAT, 0.07 kcal/mol; for ATGGTCACGTGGTGCC, 0 kcal/mol.
For AAAGTCACGTGAGTAG the value was 0.17 kcal/mol.
The value for TTAGACACGTGGAGCA was 0.06 kcal/mol; that for AGTAGCACGTGGGCAT was -0.3 kcal/mol; that for AGATTCACGTGACTGG was 0.27 kcal/mol.
Consider TTATTCACGTGGATTT, for which the “relative binding free energy” value came to 0.29 kcal/mol.
The value for CTAATCACGTGTTTAG was 0.25 kcal/mol; that for AAGCGCACGTGCTGGG was -0.08 kcal/mol.
For TGAGTCACGTGGCGGG the value was 0.07 kcal/mol.
The value for GTTATCACGTGGGATA was 0.14 kcal/mol; that for AGGTTCACGTGGCGTA was 0.04 kcal/mol.
ATCGACACGTGGGTTG: the “relative binding free energy” value is -0.17 kcal/mol.
On to GTTATCACGTGATGCG, for which the “relative binding free energy” value was 0.27 kcal/mol.
The value for TAAGGCACGTGGGTGT was -0.2 kcal/mol; that for TCTGTCACGTGGAGAG was 0 kcal/mol; that for ATGTGCACGTGATGGC was 0.17 kcal/mol.
As to ATAAGCACGTGTTGAA, the “relative binding free energy” value worked out at 0.03 kcal/mol.
For GAGATCACGTGTAGGT the value was 0.31 kcal/mol.
On to TCAGTCACGTGTCGTG, for which the “relative binding free energy” value amounted to 0.21 kcal/mol.
The value for CGTGGCACGTGGAATT was 0.18 kcal/mol; that for CTGGCCACGTGATTGT was 0.18 kcal/mol.
As to ATTTTCACGTGTTGCC, the “relative binding free energy” value stood at 0.38 kcal/mol.
For AGGAGCACGTGGTTGG the value was -0.16 kcal/mol; for AGGGTCACGTGAGGCG, 0.17 kcal/mol; for GGCAACACGTGGGTAG, 0.02 kcal/mol.
For GATGTCACGTGATTGA the value was 0.28 kcal/mol; for ATTTGCACGTGCAAGG, 0.01 kcal/mol.
For the sequence GTAGCCACGTGGGAGT, the “relative binding free energy” value was -0.2 kcal/mol.
The value for GCGGGCACGTGTTGTG was -0.03 kcal/mol; that for TTTGTCACGTGTACAT was 0.14 kcal/mol; that for TGGGTCACGTGCCGAT was 0.08 kcal/mol.
As to GGGTGCACGTGGATGC, the “relative binding free energy” value is -0.1 kcal/mol.
For GTTGGCACGTGGGGGG the value was -0.13 kcal/mol; for TGATGCACGTGTAGGT, 0.07 kcal/mol; for CTTTACACGTGCTGGG, 0.19 kcal/mol.
With GGTATCACGTGGTCTA, the “relative binding free energy” value was 0.19 kcal/mol.
For CCGAGCACGTGAGGGG the value was 0.07 kcal/mol; for GAGAACACGTGGTGGA, 0.1 kcal/mol; for GCGGTCACGTGTCTGT, 0.23 kcal/mol.
The value for TGCTTCACGTGGGGGA was 0.05 kcal/mol; that for TAGGACACGTGGTGTG was -0.03 kcal/mol.
Consider AATAGCACGTGATTTA, for which the “relative binding free energy” value was found to be 0.05 kcal/mol.
Take ATCGGCACGTGAGTGA: the “relative binding free energy” value came to 0.18 kcal/mol.
The value for AGAAGCACGTGAGTTG was 0.15 kcal/mol; that for CGTGGCACGTGGGTTC was -0.24 kcal/mol.
The value for AATGGCACGTGTGGTG was -0.01 kcal/mol.
The value for CTGTTCACGTGCTAGG was 0.2 kcal/mol; that for ATGTTCACGTGGATCA was 0.34 kcal/mol.
On to GTATGCACGTGTTGCG, for which the “relative binding free energy” value was -0.09 kcal/mol.
For CAGCGCACGTGCGGGG the value was -0.16 kcal/mol; for TGTTACACGTGGGTGG, 0 kcal/mol.
Turning to GTATACACGTGTATCG, the “relative binding free energy” value stood at 0.25 kcal/mol.
For GGAGACACGTGGTTAA the value was 0 kcal/mol; for TGAATCACGTGCGTAT, 0.13 kcal/mol; for TGCTTCACGTGGAGTT, 0.24 kcal/mol.
For AGATGCACGTGTAAGG the value was 0.01 kcal/mol; for TGTTTCACGTGATGAT, 0.35 kcal/mol; for TTTGTCACGTGTACTA, -0.07 kcal/mol.
The value for AAGCGCACGTGGGAGG was -0.14 kcal/mol; that for TATTACACGTGAAGTT was 0.35 kcal/mol; that for AGGTGCACGTGCAGGC was 0.01 kcal/mol.
Turning to TGGGTCACGTGCTGGA, the “relative binding free energy” value came to 0.07 kcal/mol.
The value for TGCGACACGTGTGTGG was 0.04 kcal/mol; that for TGATGCACGTGAAGGA was 0.26 kcal/mol.
For GTGAACACGTGTAGTG the value was 0.1 kcal/mol; for TTCGACACGTGAGGTG, 0.27 kcal/mol; for TTTTGCACGTGCAGGG, 0.04 kcal/mol.
For TGGGACACGTGCTTGC the value was -0.04 kcal/mol; for TTTTGCACGTGAACAT, 0.16 kcal/mol.
On to TGTGACACGTGGCTGA, for which the “relative binding free energy” value is -0.08 kcal/mol.
The value for GGCTTCACGTGTGGAG was 0.26 kcal/mol.
The value for ATGAGCACGTGGATGT was -0.12 kcal/mol; that for AGTGACACGTGGTTTA was -0.01 kcal/mol; that for ATAGGCACGTGTGGGC was 0.01 kcal/mol.
The value for AATGGCACGTGTTGGG was 0.04 kcal/mol.
In the case of CAGTGCACGTGGTTCG, the “relative binding free energy” value was -0.07 kcal/mol.
The value for TCGTTCACGTGGTCAT was 0.16 kcal/mol.
For CGTGGCACGTGTGGCG, the “relative binding free energy” value is -0.12 kcal/mol.
The value for TTTATCACGTGTGACG was 0.26 kcal/mol; that for CGGTACACGTGAGGGT was 0.26 kcal/mol; that for ATGCGCACGTGTAAGT was 0 kcal/mol.
For CGTTTCACGTGGTTAA the value was 0.14 kcal/mol.
The value for TGTCTCACGTGAGAGT was 0.49 kcal/mol; that for AGCGCCACGTGGTTGT was -0.15 kcal/mol; that for TTGATCACGTGATGGG was 0.27 kcal/mol.
As for GGTCGCACGTGAGAGT, the “relative binding free energy” value is 0.42 kcal/mol.
Consider GTGTTCACGTGATGGT, for which the “relative binding free energy” value was 0.48 kcal/mol.
Turning to GTCGTCACGTGGTTTT, the “relative binding free energy” value is 0.22 kcal/mol.
The value for TATGTCACGTGTTGAC was 0.2 kcal/mol; that for ATTTTCACGTGAGGCG was 0.15 kcal/mol; that for TAGTTCACGTGATTGG was 0.56 kcal/mol.
The value for CTATGCACGTGAGAGT was 0.22 kcal/mol; that for GCGTACACGTGATGGT was 0.15 kcal/mol; that for GGTCTCACGTGTGTGA was 0.21 kcal/mol.
For the sequence ATTATCACGTGATGTA, the “relative binding free energy” value was 0.37 kcal/mol.
For TAAGTCACGTGGCAGG the value was 0.03 kcal/mol.

For the origin of these results see the BET-seq Pho4 binding data (Le et al. 2018).
